Measured values reported in the supplement of paper PMC12217912.
This is one part of the list. The full chains were built here from the parent and the listed change. Inactive controls read about 0.05.

B1: TEV protease; numbered along this chain (parent)
chain: MGESLFKGPRDYNPISSSICHLTNESDGHTTSLYGIGFGPFIITNKHLFRRNNGTLVVQSLHGVFKVKDTTTLQQHLVDGRDMIIIRMPKDFPPFPQKLKFREPQREERICLVTTNFQTKSMSSMVSDTSCTFPSGDGIFWKHWIQTKDGQCGSPLVSTRDGFIVGIHSASNFTNTNNYFTSVPKNFMELLTNQEAQQWVSGWRLNADSVLWGGHKVFMVKPEEPFQPVKEATQL

Variants of: B1
Test: raw area under fraction-flipped curve 0-4 h after induction (AUC4h, not background-subtracted), DNA-recorder readout of cleavage of the substrate (dimensionless); higher = more cleavage of the substrate by the protease variant
Conditions: temperature: 34 °C; time window: 0-4 h after rhamnose induction
Experimental: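 In vivo DNA recorder in E. coli TOP10(DE3) ΔrhaA at 34 °C. Each TEVp single-site mutant (parent TEVp 0) is paired with a single-site variant of the 7-mer TEVs (canonical ENLYFQ|S). The substrate sits between flexible linkers in a Bxb1-sfGFP-TEVs-SsrA fusion, so cleavage stabilises Bxb1 and speeds flipping of a recombination array, read by NGS. The value is the raw area under the fraction-flipped curve over 0-4 h after rhamnose induction (AUC4h), with ≥20 reads per time point. It is not background-subtracted; inactive controls average about 0.047.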
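Note: Bxb1 expression induced with 0.2% (w/v) L-rhamnose at OD600 near 0.5, cultures sampled hourly, flipped fraction per protease–substrate barcode pair counted by paired-end Illumina sequencing.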

Variant	area with substrate ENLYFAS	area with substrate ENLYFCS	area with substrate ENLYFES	area with substrate ENLYFFS	area with substrate ENLYFHS	area with substrate ENLYFIS	area with substrate ENLYFKS	area with substrate ENLYFPS	area with substrate ENLYFRS	area with substrate ENLYFSS	area with substrate ENLYFVS	area with substrate ENLYFDS	area with substrate ENLYFMS	area with substrate ENLYFNS	area with substrate ENLYFYS	area with substrate ENLYFGS	area with substrate ENLYFLS	area with substrate ENLYFTS	area with substrate ENLYFWS
Q105H	0.0386	0.0819	0.064	0.0771	0.0422	0.073	0.0292	0.0461	0.0573	0.0537	0.0637	–	–	–	–	–	–	–	–
I167H	0.0761	0.0535	–	0.0672	–	–	–	0.0443	0.0539	–	–	0.0266	0.0456	0.0593	–	–	–	–	–
K221A	0.061	0.0643	0.0617	–	0.059	–	0.0471	0.0612	–	0.0483	–	0.0577	–	0.0681	0.0649	–	–	–	–
K221M	0.0684	–	0.0584	0.0678	0.0605	0.0592	0.039	0.0564	0.053	–	0.0492	0.0673	0.0546	0.0572	–	0.0585	0.0608	–	–
K221C	0.0566	0.0546	0.0417	0.0667	0.0638	0.0633	0.0679	0.0656	–	0.0601	–	0.0729	0.0731	0.0238	0.0531	0.0746	0.0617	0.0448	0.0443
P14Q	0.0654	0.0553	0.0552	0.0559	0.0587	0.053	0.0572	0.0637	0.0443	0.0565	0.0648	–	0.0668	0.0638	0.0625	–	–	0.0678	0.0551
S182Q	0.0572	0.0547	0.0579	0.0608	0.058	0.05	0.0532	0.0583	–	–	0.0508	–	0.0558	–	0.057	–	–	–	0.0441
S182L	0.0451	0.0561	–	0.0545	–	0.0458	–	0.0539	–	–	–	0.0549	–	–	–	–	–	0.0535	0.0516
G63V	0.0515	0.0566	0.0529	–	0.0762	0.0557	0.0525	0.0583	0.0635	0.0624	–	0.0627	0.065	0.0645	0.0475	0.0588	0.0596	0.0601	0.0581
H62C	0.064	0.0593	–	0.0642	0.0045	0.0464	0.0533	0.063	–	0.0603	–	0.061	–	–	0.0594	–	–	0.055	0.0621
Q59A	0.0556	0.0779	0.0587	0.0462	–	–	–	0.0591	–	–	–	–	–	–	0.0837	–	–	–	–
V64S	0.0518	0.0724	–	0.0835	–	–	–	0.0586	–	–	–	–	–	0.0677	0.0521	–	–	0.0492	0.0519
E107F	0.0242	0.0569	0.0594	0.0743	0.0623	0.0526	–	0.0557	–	0.0522	–	–	–	–	–	–	–	0.054	–
V157I	0.0256	0.0623	–	–	0.0536	–	–	0.0728	0.0563	0.0465	0.0548	0.0557	0.0828	–	0.0539	–	0.0622	0.0483	–
N193E	0.0497	0.0464	0.0756	0.0785	–	0.0722	0.0712	0.0445	–	0.0673	0.0518	–	–	–	–	0.0265	–	0.0546	–
